Source: PMC12136788
The other results are listed elsewhere or left out.

B1: chr17:26793470:26793471:+_ENSMUSG00000001576_ENSMUST00000167662|mus_mus|motif|central (ssRNA)
RNA: GGGAGUUCUACAGUCCGACGAUCAUUGGAAUCAGAGGAAAAAUUACAAAUGGCAGAGAAUCCAGCUACCCAUAAGAGACGGUUUAAGAAAAACAAAACCAAAACCAAACAAAAACAAAAAACCCCAAAACUUCCUACUGCAGGCAACAGAGGAUUGAGCAUCA
B2: chr6:41757443:41757444:+_ENSG00000214736_ENST00000398881|hu_mus|hu_hu_hu_mus_False|38_98 (ssRNA)
RNA: GGGAGUUCUACAGUCCGACGAUCGAACCGUGCAGAGACCAGAGAAUAGCCGACACUGGGGGAUGGGGGGGCAGUGGGGGGGGGUUCAGGCAAGGAGAAGAAAAGUGCUUCAGCUGCCACUCAGGUAGGAUCUUGUGGUCACAGCAACAGAGGAUUGAGCAUCA
B3: 184256411_184260012_446_CDS_ENSMUSG00000047539_ENSMUST00000051431|mouse|control|control (ssRNA)
RNA: GGGAGUUCUACAGUCCGACGAUCGGAAUCCACAUACUUCAUGAAGGUCAUAUUCAACAGUGACAACCUCGUUUCCACAGCGGCAAGGAUGUCUGCAUGACGAGCUAAAGAAUGGUUUCUUCUUUCUGACUCUCUCCUCGGUAGCAACAGAGGAUUGAGCAUCA
B4: chr3:184040909:184040910:+_ENSG00000114867_ENST00000411531|hu_hu|motif|central (ssRNA)
RNA: GGGAGUUCUACAGUCCGACGAUCGCCAAGGUUGGCAAAGGAUGGAGUGAAGUCUGGGCCACAAUUUAUGCCUUGUAGUCGGGUGGGAUCCAGUGGCCGCAGUGGUGUUUUAUUGGCCUUGUCCAGCACCACGUCACUGAUAUGCAACAGAGGAUUGAGCAUCA
B5: chr4:137866854:137866855:+_ENSMUSG00000028757_ENSMUST00000030538|mus_hu|FALSE|FALSE (ssRNA)
RNA: GGGAGUUCUACAGUCCGACGAUCGUCAUCGCCAUCAAAGGGGACCCAUUUGCCAUUUGAGAGCUGCUGGAUCACGAUGCUAUACUCCACUAGGUCAGUGACAGUGUAGGCAUUGGGUGGGGCUGUCUCGCCCACCCGAUGAUGCAACAGAGGAUUGAGCAUCA
B6: 53243573_53243693_1779_CDS_ENSG00000177200_ENST00000398510|human|control|control (ssRNA)
RNA: GGGAGUUCUACAGUCCGACGAUCUGUUUUUGUUUUUUUGCUGUCUUUGUCCUUUGGCUUGGAUUUCAUCCUUCUACCUUUCUUUUCCUCUUUUCCUUCAACUGAAGCAGUAGGAAAGUUUUCAGGGCUCAUUACUCGUGGAAUCAACAGAGGAUUGAGCAUCA
B7: 36898635_36898755_1001_CDS_ENSMUSG00000034243_ENSMUST00000039855|mouse|control|control (ssRNA)
RNA: GGGAGUUCUACAGUCCGACGAUCAAGCUGAUGCAUCUCUUCUUGAAGGUUAUGGAAGGAUAACUUUCUCUCUGCCACUUCGAGUUCUACCUUUUCCAUCAGGGUCUUGGACUCCUGUCUUUCUGUUUCCAUGGUAUUCUUUAACAACAGAGGAUUGAGCAUCA
B8: chrX:98862621:98862622:+_ENSMUSG00000034160_ENSMUST00000044475|mus_hu|mus_mus_mus_hu_False|18_88 (ssRNA)
RNA: GGGAGUUCUACAGUCCGACGAUCCUGCAUCUCCUUUAGAGUGUUUCCCAUAUUGGAGUAGGCAUCAGCAAAGGUAGGACUGAUUCGAAUAGCCUCCUUAUAAUGCAUCAGAGCUUCCUGCAGCUUGCCCUGCUGCUGCAGUACCAACAGAGGAUUGAGCAUCA
B9: chr14:54897011:54897012:-_ENSG00000100528_ENST00000216416|hu_mus|FALSE|FALSE (ssRNA)
RNA: GGGAGUUCUACAGUCCGACGAUCCACCAGAACAUAGAUCAUGCCGUAUAGGUAGUAAAAAAACGCUAGAAGGUAAAAAGCGAGUUUGCACCAUCCUUCCUUCUGACAGUAGGCUAGAAUGUCUGCAUUCAUGAUGGUCGUCGGCAACAGAGGAUUGAGCAUCA
B10: chr7:2411435:2411436:+_ENSG00000106263_ENST00000360876|hu_mus|FALSE|FALSE (ssRNA)
RNA: GGGAGUUCUACAGUCCGACGAUCGAUGGUUUCUUUCAUCUCAACAACAUCAACAGGUACCUGCUUCUCCCUCAUUCGGAAUAUUUCAAAAUUUGUGACAACUCCCUGUGUGCCUUUCGGAGUCCUGUCCACUUUUACACAUAGCAACAGAGGAUUGAGCAUCA
B11: chr7:127231458:127231459:+_ENSG00000004059_ENST00000000233|hu_hu|motif|central (ssRNA)
RNA: GGGAGUUCUACAGUCCGACGAUCCAGGCUCCAACAACAGAGAGAACAUGCAGGCAGGAGCAGGAGCAGAGGCCUGUGGCGGUGGGGGAGGAAAAGUGGGAGGAAAGGGCACUGCCUGAGGAGUCCGGGAGUCUGGUCAUCCCGCAACAGAGGAUUGAGCAUCA
B12: chr15:85259290:85259291:-_ENSG00000140612_ENST00000559729|hu_hu|motif|central (ssRNA)
RNA: GGGAGUUCUACAGUCCGACGAUCAUUUAGGACUUGAUAAUAGAGCUGCCGCUUGUUCAUCCGCCGCACAUCGUCCAAAAAGUCGGGAGACAGCAUGGCGGGGACGGCGAGCAGGACACCGGCAGGGGAAAGGGCGCGAUGACCCAACAGAGGAUUGAGCAUCA
B13: chr11:51605143:51605144:+_ENSMUSG00000020386_ENSMUST00000020653|mus_mus|FALSE|FALSE (ssRNA)
RNA: GGGAGUUCUACAGUCCGACGAUCGGGAAGCUGAUCUUUAUAAACGGUGAUGGAUUGAUGUGGGGUUAGAAACUGUAAAAACUAUCUGUGUGGAAUUAGAAAGCUAACAUUGUGAUAUUCAAACUUGAAUCAGUUUGCAAUUCCCAACAGAGGAUUGAGCAUCA
B14: chr10:33190432:33190433:-_ENSG00000150093_ENST00000302278|hu_mus|hu_hu_hu_mus_True|1_18 (ssRNA)
RNA: GGGAGUUCUACAGUCCGACGAUCUACAUUUUCCAAACCUGCAUGUGAAUAAAACCCUGGCCACAGAGCCCCAAAACUACCCUACUGUGACUAAGAUGCUGCUGCUGUGAGCUUGGUUGUUGUGGGACCGCCUGAGUCAGUACUCAACAGAGGAUUGAGCAUCA
B15: chr4:106720893:106720894:+_ENSMUSG00000061887_ENSMUST00000030367|mus_hu|FALSE|FALSE (ssRNA)
RNA: GGGAGUUCUACAGUCCGACGAUCCAACAAAAAAGUGUCAUGUACAGAAAAGGUCCUUUGGGGAAAGGGCAAGGGGUGGGAUUUUUCUGGUCACUGACUUGAAAUACAUUUUUGAGAGUUUUGUCCUUCUUGUUUUAUGGAAUACAACAGAGGAUUGAGCAUCA
B16: 38241307_38241427_3500_3pUTR_ENSMUSG00000022812_ENSMUST00000023507|mouse|control|control (ssRNA)
RNA: GGGAGUUCUACAGUCCGACGAUCACAGACUCUGUCGCGCUCUCUCCUUUGGCAGCAGCCUUCCUAAGCUGGCAUCUGCAACACCUGCACUGGUCAAGAGCAAAACAAACCUUAAGUAAUCCAUCUCUGAUCUUCCCUUAGAGCCAACAGAGGAUUGAGCAUCA
B17: 27959316_27959436_2906_CDS_ENSG00000141298_ENST00000269033|human|control|control (ssRNA)
RNA: GGGAGUUCUACAGUCCGACGAUCACUGUAUUUCCCUUUGCCUUUGCUCAUUUCUGGUUCCUUGAGGACAAAUGAAUGUUCUGGGGGGGCUUCAUCACUUUUCCCUUUUGGUGCUAGGUCUGCCACAGAAGAAUCAUUCUUUGACAACAGAGGAUUGAGCAUCA
B18: chr9:135554620:135554621:+_ENSG00000125484_ENST00000372146|hu_hu|motif|central (ssRNA)
RNA: GGGAGUUCUACAGUCCGACGAUCUUCUUGUAAAAAUUGAGGGAUAUGUUUAUCUUUUAAAAUCUUCCAGCGUACGGGGUCGGUUAAAUCUACCUGCUUAAAAAGGUUUUGAACUGAAGAUUCCAGGAGCUGAGCAGCUGCCUCCAACAGAGGAUUGAGCAUCA
B19: chr2:216983849:216983850:+_ENSG00000079246_ENST00000392132|hu_hu|FALSE|FALSE (ssRNA)
RNA: GGGAGUUCUACAGUCCGACGAUCCUUGCCAAGUGAGAAAGGCAAGAAGAAUUGCAGGGAGAUGUCACAUUUCUUCAAGCUAUGAAUUAUAAUAUCCAGCUGACUUUUGCUGAAUCGGCUGCUGAGGUCAGUGAAUAUUUCAAUCAACAGAGGAUUGAGCAUCA
B20: chr1:163116471:163116472:-_ENSG00000143248_ENST00000313961|hu_hu|FALSE|FALSE (ssRNA)
RNA: GGGAGUUCUACAGUCCGACGAUCUAUAAAAUACUUCAUUGUUGAUCUUAGGUCAUUGAUUUAAAACAGAAUUUGGUGACUAUGGGCAGGUGGAGGGGGCCAGUGAGGAAGGUAUAAAAGAGAAAUCUUUAUGAAUUGUGUUCACAACAGAGGAUUGAGCAUCA
B21: chr3:10015032:10015033:+_ENSMUSG00000027533_ENSMUST00000029046|mus_mus|mus_mus_mus_hu_True|58_68 (ssRNA)
RNA: GGGAGUUCUACAGUCCGACGAUCGUUUUUACCAUCACAAGUGAUGAUACAAUCUGGCUUGGCCAUUGCAGCCAUCUUCCUAAGAGCUAUUCCCACUCCUAGCUCCUUCAUGUAUUCAUCAAAGCCUUUGCUGUCCACCAGGCGCAACAGAGGAUUGAGCAUCA
B22: 204354679_204354799_599_3pUTR_ENSG00000173166_ENST00000319170|human|control|control (ssRNA)
RNA: GGGAGUUCUACAGUCCGACGAUCUUCUGAGUAGCUUUCGUUUCUGUGAUUUGACGCUUACUGUUUCCUGAACCAAUGCUGCUGAGCUCCUGCUCUAUAGAGCAAAGAUCAGCCAUCAAGGCAUCCAGAUCCACAGUCUCUCCCCAACAGAGGAUUGAGCAUCA

Target: T1, UNK ZnF1-3 (human, UniProt Q9C0B0 31-174)
T1 sequence: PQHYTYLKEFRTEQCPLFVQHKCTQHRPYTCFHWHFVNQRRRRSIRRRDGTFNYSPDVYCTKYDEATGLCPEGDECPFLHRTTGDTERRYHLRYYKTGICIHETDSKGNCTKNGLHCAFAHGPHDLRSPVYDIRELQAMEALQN
Assay: nsRBNS (natural sequence RNA bind-n-seq); RBNS binding buffer (assumed for nsRBNS): 25 mM Tris pH 7.5, 150 mM KCl, 3 mM MgCl2, 0.01% Triton X-100, 500 ug/ml BSA, 20 U/ml SUPERase-In, 4 C; UNK is unkempt and MSI1 is Musashi-1; names of the RNAs are library labels; protein concentration not given here; high values mean tight binding

Q: For B1, which binding signal is on record?
A: 2.93 enrichment R

Q: How did the binding signal turn out when B2 was run?
A: 1.49 enrichment R

Q: For B3, which binding signal is on record?
A: 0.704 enrichment R

Q: With B4 as the binder, how does the binding signal read?
A: 1.1 enrichment R

Q: How did the binding signal turn out when B5 was run?
A: 0.792 enrichment R

Q: B6 was tested. Which binding signal did it give?
A: 0.173 enrichment R

Q: With B7 as the binder, how does the binding signal read?
A: 0.521 enrichment R

Q: With B8 as the binder, how does the binding signal read?
A: 0.914 enrichment R

Q: For B9, which binding signal is on record?
A: 0.934 enrichment R

Q: For B10, which binding signal is on record?
A: 1.29 enrichment R

Q: B11 was tested. Which binding signal did it give?
A: 2.28 enrichment R

Q: How did the binding signal turn out when B12 was run?
A: 0.905 enrichment R

Q: How did the binding signal turn out when B13 was run?
A: 1.26 enrichment R

Q: B14 was tested. Which binding signal did it give?
A: 1.17 enrichment R

Q: How did the binding signal turn out when B15 was run?
A: 1.66 enrichment R

Q: How did the binding signal turn out when B16 was run?
A: 1.14 enrichment R

Q: Which binding signal does the source give for B17 here?
A: 0.512 enrichment R

Q: With B18 as the binder, how does the binding signal read?
A: 1.38 enrichment R

Q: B19 was tested. Which binding signal did it give?
A: 0.747 enrichment R

Q: With B20 as the binder, how does the binding signal read?
A: 1.8 enrichment R

Q: For B21, which binding signal is on record?
A: 0.704 enrichment R

Q: B22 was tested. Which binding signal did it give?
A: 0.588 enrichment R
